Results taken from PubChem BioAssay AID588453 (National Center for Advancing Translational Sciences (NCATS), 2011).
Where “and” joins values, the source holds several entries; their conditions need not be identical. Identical values can stand only once. Among all 390,000 compounds or so, about 4,000 (1%) were called active. Inconclusive results, whose numbers are uncertain, are shown with a selection of clear calls. Calls follow the shape of the dose curve; as a rule, active = well fitted inhibition curve with a large enough effect; inconclusive = small, poorly fitted or top-dose-only effect; inactive = no such curve, though single readings can be large or run the other way. A potency beside an inconclusive call is a rough fit, not a confirmed value.

target: Thioredoxin reductase 1, cytoplasmic (Rattus norvegicus) (UniProt O89049); experiment: qHTS Assay for Inhibitors of Mammalian Selenoprotein Thioredoxin Reductase 1 (TrxR1): qHTS; settings: recombinant rTrxR1, NADPH fluorescence consumption, selenite substrate; series mostly up to 114 µM; also: nearly all actives have a fitted effect of over 65% in size
Sequence of UniProt O89049 (O89049 whole entry, looked up): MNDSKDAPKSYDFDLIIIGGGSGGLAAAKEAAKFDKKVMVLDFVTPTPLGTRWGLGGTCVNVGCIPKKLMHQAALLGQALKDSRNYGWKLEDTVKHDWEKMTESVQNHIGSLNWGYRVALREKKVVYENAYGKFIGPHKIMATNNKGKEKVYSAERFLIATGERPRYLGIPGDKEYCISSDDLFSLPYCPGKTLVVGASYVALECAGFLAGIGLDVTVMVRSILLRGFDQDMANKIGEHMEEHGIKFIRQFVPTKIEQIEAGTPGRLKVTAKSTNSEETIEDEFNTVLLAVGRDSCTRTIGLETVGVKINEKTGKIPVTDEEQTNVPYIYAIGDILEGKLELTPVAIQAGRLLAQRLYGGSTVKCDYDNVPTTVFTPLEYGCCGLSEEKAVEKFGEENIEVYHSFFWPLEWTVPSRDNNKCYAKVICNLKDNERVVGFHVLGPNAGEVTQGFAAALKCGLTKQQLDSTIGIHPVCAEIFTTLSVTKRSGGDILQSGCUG
Outline: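 Rat TrxR1 (90 nM in the dispensed reagent) was pre-reduced with 400 uM NADPH for 5 min at room temperature, then incubated with compound for 15 min. After 400 uM selenite was added, NADPH fluorescence (Ex 340/Em 450 nm) was followed for 8 min.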
Potency is read from the fitted curve at half-maximal effect; tags tell the direction and shape of the fitted curve.

Structure (SMILES)	Potency
Cn1c(=O)c(=O)n(C)c2cc(N3CCCC3)c(NC(=O)c3ccc(C(C)(C)C)cc3)cc21	inconclusive: 79.4 µM [inhibitor, partial curve]
CC1=C(C(=O)OCc2ccc3nsnc3c2)N2C(=O)[C@@H](NC(=O)OCc3ccc4nsnc4c3)[C@H]2SC1	inconclusive: 50.1 µM [inhibitor, partial curve]
CCCN(CCC)Cc1c(C(=O)N/N=C/c2ccoc2)nnn1-c1nonc1N	inactive
CC(C)(C)c1cc[n+](C2=C([O-])c3ccccc3C(=O)/C2=N\S(=O)(=O)c2ccccc2)cc1	inactive
O=C(O)CC12CC3CC(C1)CC(n1ncc(NCc4ccco4)c(Cl)c1=O)(C3)C2	inconclusive: 79.4 µM [inhibitor, partial curve, poor fit]
COc1ccc(CNc2oc(COc3cccc(C)c3)nc2C#N)cc1	inactive
Cc1ccc(NC2CCCN(C(=O)CCn3nccc3C)C2)cc1C (centres undefined)	inconclusive: 79.4 µM [inhibitor, single point]
CCCCc1cc(=O)oc2c(CN(CC)CC)c(O)c(Cl)cc12	inconclusive: 100 µM [inhibitor, single point]
Cc1ccc(C(=O)O)cc1NC(=S)NC(=O)c1ccc(COc2ccccc2)cc1	inconclusive: 39.8 µM [inhibitor, partial curve]
Cc1cc(C)nc(N2N=C(CSc3ccc(Cl)cc3)CC2=O)n1	inconclusive: 2.24 µM [inhibitor, full curve, poor fit]
COc1ccccc1NC(=S)NNC(=O)c1ccccc1Br	inconclusive: 12.6 µM [inhibitor, partial curve, poor fit]
Cc1nc2c(C)cccn2c(=O)c1NC(=O)c1ccc2c(c1)OCO2	inconclusive: 3.16 µM [inhibitor, partial curve]
COc1cccc(C2=NN(C(=O)c3ccc(C)o3)C(O)(C(F)(F)F)C2)c1 (centres undefined)	inactive
C/C=C/C=C/C(=O)N1CC2(CC(c3cccc(NC(=O)CCCCC)c3)=NO2)C[C@H]1C(N)=O (some centres undefined)	active: 28.2 µM
COCCC(=O)N1CCC(Oc2ccc(C(=O)NCc3cccc(C)n3)cc2)CC1	inactive
CN1/C(=C/C2CC(=O)NC2=O)C(C)(C)c2ccccc21 (centres undefined)	inconclusive: 70.8 µM [inhibitor, single point]
O=C(CCc1n[nH]c(=O)[nH]c1=O)N/N=C/c1ccc(Br)o1	inconclusive: 44.7 µM [inhibitor, partial curve]
Cc1cc(C(=O)Nc2nnc(C(F)(F)F)s2)no1	inactive
Cc1sc(NC(=S)NC(=O)c2ccco2)c(C#N)c1C	inconclusive: 12.6 µM [inhibitor, full curve]
COc1ccc2c(c1)OC[C@H]1[C@H]2N2C(=O)CNC(=O)[C@@]2(C)[C@H]1c1ccccc1	inconclusive: 70.8 µM [inhibitor, partial curve]
COc1ccc(OC)c(NC(=S)NCc2ccco2)c1	inconclusive: 10 µM [inhibitor, partial curve, poor fit]
C#CCOCCOCCOCCNc1nc(N2CCN(C(=O)C([C@@H](C)O)n3cc([C@@H](N)CCCCN)nn3)CC2)nc(N2CCN(C(=O)[C@H](CCC(=O)O)n3cc([C@@H](N)[C@H](C)CC)nn3)CC2)n1 (some centres undefined)	inactive

Structure (SMILES)	Potency
CC1(C)Cc2c(c(N3CCOCC3)nc3sc(C(=O)N4CCCCC4)c(N)c23)CO1	inactive
COc1ccccc1/C=C/c1nc(C#N)c(NC(C)c2ccccc2)o1 (centres undefined)	inactive
C=CCN=Cc1c(C)[nH]n(-c2ccccc2)c1=O	inactive
Cc1ccccc1NC(=S)NCc1cccn1C	inconclusive: 89.1 µM [inhibitor, single point]
C#CCOCCOCCOCCNc1nc(N2CCN(C(=O)[C@H](CCCCN)n3cc([C@@H](N)[C@H](C)CC)nn3)CC2)nc(N2CCN(C(=O)[C@H](CCC(=O)O)n3cc([C@@H](N)CCCCN)nn3)CC2)n1	inconclusive: 56.2 µM [inhibitor, partial curve]
CCc1ccc(Sc2cc(C(=O)NCCCN3CCCC(C)C3)c3ccccc3n2)cc1 (centres undefined)	inactive
CC(C)Cc1nc2oc3c(Cl)ncnc3c2c2c1CCC2	inconclusive: 8.91 µM [inhibitor, full curve, poor fit]
COC(=O)NC1c2ccccc2Oc2ccc(C)cc21 (centres undefined)	inactive
COc1cc(C(=O)NC(=S)Nc2ccc(Cl)c(C(=O)O)c2)cc(OC)c1OC	inactive
C[C@](Cc1ccc(O)c(O)c1)(NN)C(=O)O	inconclusive: 2.38 µM [inhibitor, full curve]
CCOC(=O)CCCCC(=O)c1[nH]c(=O)[nH]c1CSc1nc(C)cc(=O)[nH]1	active: 3.16 µM
COc1ccc(C(C#N)N2CCC(c3ccccc3)=N2)cc1OC (centres undefined)	active: 3.16 µM
CCc1ccc(NS(=O)(=O)c2cccc3nonc23)cc1	inconclusive: 28.2 µM [inhibitor, single point]
COc1cc(C2C(C(=O)c3cccs3)=C(O)C(=O)N2CCN2CCOCC2)ccc1OCCC(C)C (centres undefined)	inconclusive: 89.1 µM [inhibitor, partial curve, poor fit]
NC[C@H](O)c1ccc(O)c(O)c1	inconclusive: 15 µM [inhibitor, partial curve] and inconclusive: 79.4 µM [inhibitor, single point] and inconclusive: 6.7 µM [inhibitor, full curve]
COc1ccc(C2=Nc3cc(C)ccc3OC2)cc1	inconclusive: 63.1 µM [inhibitor, single point]
CN(Cc1ccco1)C(=O)CSc1nc(C2CC2)n(-c2ccccc2)n1	inconclusive: 39.8 µM [inhibitor, partial curve, poor fit]
COc1ccc2[nH]c(=O)c(CNc3ccccc3)cc2c1	inconclusive: 15.8 µM [inhibitor, partial curve]
CCCC(C(=O)O)N1C(=O)/C(=C/c2cccn2C)SC1=S (centres undefined)	inconclusive: 56.2 µM [inhibitor, partial curve, poor fit]
O=C1c2ccccc2CC1Sc1nnc(-c2ccncc2)o1 (centres undefined)	inconclusive: 25.1 µM [inhibitor, full curve, poor fit]
COc1cccc(N2CCN(c3ncc4c(n3)CCN(Cc3ccc(Br)cc3)C4)CC2)c1	inactive
Cc1ccc2cc(C(c3nnnn3C(C)(C)C)N3CCCCCC3)c(=O)[nH]c2c1 (centres undefined)	inconclusive: 15.8 µM [inhibitor, partial curve]

Structure (SMILES)	Potency
Clc1ccc(Sc2ccc(/C=N/n3cnnc3)o2)cc1	inconclusive: 39.8 µM [inhibitor, partial curve, poor fit]
CC(C)C(=O)Nc1ncc(Cc2ccc(Cl)cc2)s1	inconclusive: 7.08 µM [inhibitor, single point]
Cc1ccc(CN(C)C(=O)C2CCCN2C(=O)c2cccs2)o1 (centres undefined)	active: 10 µM
Cc1ccc(S(=O)(=O)N2[C@@H](c3ccccc3F)C(C(=O)O)=CC[C@H]2c2ccc(Cl)c(Cl)c2)cc1	inactive
O=C(NNC(=S)Nc1ccccc1Cl)C1CC1	inconclusive: 8.91 µM [inhibitor, partial curve, poor fit]
Cc1occc1-c1nnc(SCC(=O)N2CC(=O)Nc3ccccc32)n1CC(C)C	inconclusive: 12.6 µM [inhibitor, partial curve, poor fit]
Cc1[nH][nH]c(=O)c1C(c1c(C)[nH][nH]c1=O)c1cn(Cc2ccccc2Cl)c2ccccc12	inconclusive: 17.8 µM [inhibitor, partial curve, poor fit]
CCc1ccc(C2C(C#N)=C(N)SC(N)=C2C#N)cc1	inconclusive: 10 µM [inhibitor, single point]
O=C(CCS(=O)(=O)c1ccccc1)N(CCCN1CCOCC1)c1nc2ccccc2s1	active: 14.1 µM
C/C=C/C=C/C(=O)[C@@H]1[C@@H]([C@]2(C)OC(=O)C(C)=C2O)[C@H]2/C(=C(O)/C=C/C=C/C)C(=O)[C@]1(C)C(=O)C2(C)O (some centres undefined)	inconclusive: 56.2 µM [inhibitor, partial curve, poor fit]
CCNc1oc(-c2cccc3ccccc23)nc1C#N	inconclusive: 10 µM [inhibitor, partial curve, poor fit]
C#CCOCCOCCOCCNc1nc(N2CCN(C(=O)[C@H](CCCCN)n3cc([C@@H](N)C(C)CC)nn3)CC2)nc(N2CCN(C(=O)[C@H](Cc3cc4ccccc4[nH]3)n3cc([C@@H](N)C(C)CC)nn3)CC2)n1 (some centres undefined)	inconclusive: 25.1 µM [inhibitor, full curve]
C=CCN1C(=O)/C(=c2\sc3nc(=O)c(Cc4ccccc4)nn3c2=O)c2ccccc21	inconclusive: 10 µM [inhibitor, partial curve, poor fit]
O=C(NCc1ccco1)c1cnc2sccn2c1=O	inactive
O=[N+]([O-])c1ccc(CN2CCCCCC2)s1	inconclusive: 56.2 µM [inhibitor, partial curve, poor fit]
CS(=O)(=O)Nc1ccc(C2=NN(C(=O)c3ccco3)C(c3cccc(F)c3)C2)cc1 (centres undefined)	inactive
CC(COc1cccc2ccccc12)CN1CCN(C)CC1 (centres undefined)	inconclusive: 56.2 µM [inhibitor, partial curve, poor fit]
Cc1ccc(C)c(C(=O)CSc2n[nH]c(C)n2)c1	active: 35.5 µM
COc1ccc(Br)c2oc(SC)cc(=O)c12	inactive
COc1ccc(S(=O)(=O)N2CCC(C(=O)NCCC(=O)NCc3ccccc3OC)CC2)cc1	inactive
